Test in all cases: Viability of human cancer cell lines after 72 h of drug (GDSC screen)
Compound in assay [1]: C=CC(=O)N1CCc2ccc(-n3c(=O)ccc4cnc5ccc(-c6cnn(C)c6)cc5c43)cc21 [QL-XII-47]
The note with it: top dose 10.24 µM; top dose inferred. As for the experimental part:
(§1)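 Human cancer cell lines in 384-well plates, medium with 10% serum, drug for 72 h over a 256-fold dose range (nine 2-fold or five 4-fold steps up to the top dose). Adherent lines were fixed and stained with the nucleic acid dye Syto60, suspension lines read with resazurin; signal relative to control wells, capped at 0 and 100%. One two-parameter sigmoid per drug and line, fitted in a mixed model over all curves with the slope shared within a line.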

Compound in assay [2]: CCN1CCC(n2cc(CNc3cc(Cl)c4ncc(C#N)c(Nc5ccc(F)c(Cl)c5)c4c3)nn2)CC1 [KIN001-266]
Particulars: top dose 20 µM; top dose inferred. The procedure:
as §1

Compound in assay [3]: COc1ccc(-c2cc3nccn3c(Nc3ncccc3C(N)=O)n2)cc1OC [BAY 61-3606]
Particulars: top dose 8 µM; top dose inferred. As for the experimental part:
as §1

Compound in assay [4]: O=C1/C(=C/c2cccs2)CC/C1=C\c1cccs1 [CCT007093]
Particulars: top dose 6.6 µM; top dose inferred. The procedure: as §1

Lines with a small IC50 respond at low doses; fits outside the tested doses are given as limits. The AUC spans the tested range (256-fold, ending at the top dose) of the same fit; the more sensitive the line, the further below 1. An inferred top dose is not printed in the source and was worked back from the curve model.

What is called IC50 is the concentration that inhibits the measured activity by half. As to YT (lymphoid neoplasm, suspension), the AUC was found to be 0.557 in assay [1], 0.885 in assay [2], 0.755 in assay [3] and 0.983 in assay [4]. Further, the IC50 in assay [1] is 0.894 µM; in assay [2], 16.1 µM; in assay [4] it was above 6.6 µM.

As to huH-1 (liver, adherent), the AUC in assay [1] was 0.981; in assay [2], 0.983; in assay [3], 0.983; in assay [4], 0.977. The IC50 in assay [1] is above 10.2 µM; in assay [2], above 20 µM; in assay [3], above 8 µM; in assay [4], above 6.6 µM.

As for no-10 (glioma, adherent), the AUC in assay [1] was 0.638; in assay [2], 0.911; in assay [3] it was 0.952; in assay [4], 0.973. The IC50 in assay [1] is 1.68 µM; in assay [2] it was above 20 µM; in assay [3], above 8 µM; in assay [4], above 6.6 µM.

As for no-11 (glioma, adherent), the AUC in assay [1] was determined as 0.528; in assay [2], 0.893; in assay [3], 0.873; in assay [4], 0.983. For the same cell line, the IC50 is 0.779 µM in assay [1], above 20 µM in assay [2], above 8 µM in assay [3] and above 6.6 µM in assay [4].

The values are drawn from the supplement of paper PMC4967469.
